Test results published in PubChem BioAssay AID743279 (National Center for Advancing Translational Sciences (NCATS), 2014).
Out of some 360,000 compounds screened, about 17,000 (4.7%) were called active. This list was built around the results that the source calls inconclusive (neither active nor inactive); the mix of calls is not that of the screen. No stated cut-off is given here; in the data, active means activity change below about -50%; inconclusive means mostly about -30% to -49%; inactive means weaker than that.

Experiment: qHTS for Inhibitors of Inflammasome Signaling: IL-1-beta AlphaLISA Primary Screen
Conditions: THP-1 LPS/ATP IL-1B secretion, 16 h; at 57.5 µM, active compounds read low
Outline: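 THP-1 cells pretreated 1 hr with compounds (up to 57.5 uM final), then stimulated with LPS (250 ng/mL final) plus ATP (1.25 mM final); secreted IL-1B measured by AlphaLISA after 16 hr, decreased signal indicating inhibition.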
On the % scale 0 is the no-effect control and ±100 the full control effect.

SMILES | activity change
Cc1ccc(S(=O)(=O)CCC(=O)N(CCCN2CCOCC2)c2nc3ccccc3s2)cc1 | active: -72%
O=C(NCc1cccs1)C(Cc1ccccc1)NS(=O)(=O)c1cccs1 (stereo unspecified) | inconclusive: -38.9%
COC(=O)C1=C(C)N(Cc2ccco2)C(=O)N[C@H]1c1cccc(C(F)(F)F)c1 | inconclusive: -31.6%
Cn1c2ccccc2c(=O)c2ccc(C#Cc3ccc(N)cc3)cc21 | inactive: -28%
CCOc1ccc(NC(=O)OCCN2CCN(CCc3ccccc3)C(C)C2)cc1 (stereo unspecified) | active: -69.8%
CCOC(=O)C1=C(CSCC(=O)OC)NC(=O)NC1c1cc(C)ccc1C (stereo unspecified) | inactive: -14.9%
Cc1ccc(C)c(NC(=O)c2cc(-c3ccccc3O)n[nH]2)c1 | inconclusive: -32.8%
COc1ccccc1NC(=O)Nc1nc(CC(=O)Nc2ccc(N(C)C)cc2)cs1 | inconclusive: -37.9%
COc1ccc(-c2ncc3ccccn23)cc1OC | inconclusive: -38%
O=C(NCCCN1CCOCC1)c1ccc2c(c1)N(Cc1ccccc1)C(=O)c1ccccc1S2 | inconclusive: -39.4%
CCOC(=O)c1c(NC(=O)c2nn(CC)cc2Br)sc2c1CCCCC2 | inconclusive: -39.5%
COc1ccc(-c2cc3nc(-c4ccccc4)cc(N4CCCC(O)C4)n3n2)cc1 (stereo unspecified) | inconclusive: -48.6%
CCS(=O)(=O)c1ccc(C(=O)Nc2cccc(Cl)c2)c(Cl)c1Cl | inconclusive: -46.8%
CN1OC[C@@H]2CN(C(=S)NCCc3ccccc3)[C@H](c3ccc(-n4ccnc4)cc3)C[C@@H]21 | inactive: -11.1%
C[C@H]1COc2cccc(N3CCC[C@H]3CO)c2S(=O)(=O)N1 | inactive: 0%
CCOc1ccccc1N1CCN(CC(=O)NC(C)c2ccccc2)CC1 (stereo unspecified) | inactive: 14.8%
CC(C)(O)CN(C(=O)C(c1ccccc1)c1ccccc1)C1CCCCC1 | active: -63.3%
O=C(Nc1cccnc1)c1ccc(COc2ccccc2Br)cc1 | active: -66.9%
CC(NC(=O)NC1CCCCC1)C(c1cccs1)N1CCN(c2ccccc2)CC1 (stereo unspecified) | inconclusive: -33%

SMILES | activity change
Cc1ccccc1-c1nc(S(=O)(=O)c2ccc(Br)cc2)c(NCc2cccnc2)o1 | inconclusive: -47.6%
Cn1cc(Br)c(C(=O)N2CCN(c3cccc(Cl)c3)CC2)n1 | inconclusive: -32%
O=C(NC1CCCc2c1cnn2-c1ccc(F)cc1F)c1ccccn1 (stereo unspecified) | inconclusive: -30.2%
CN1CCN(S(=O)(=O)c2ccc(Sc3nc4ccccc4[nH]3)c3nsnc23)CC1 | inconclusive: -31.8%
CC1(NC(=O)Cc2csc(-c3ccc(Cl)cc3)n2)CCS(=O)(=O)C1 (stereo unspecified) | inactive: 7.65%
Cc1ccc(S(=O)(=O)c2nc(S(C)(=O)=O)sc2N2CCN(C)CC2)cc1 | inconclusive: -31%
Cc1ccccc1NC(=S)NCCC(c1ccccc1)c1ccccc1 | active: -61.5%
O=C(OC1CCCCC1=O)c1cc(S(=O)(=O)N2CCOCC2)ccc1F (stereo unspecified) | inactive: -2.1%
O=C1N(Cc2cccc(Cl)c2)C[C@@H]2C[C@@H](c3cccn3-c3nccs3)N3CCC[C@@]123 | active: -81.9%
Cc1ccc(C2CC(=O)Nc3c2ccc2ccccc32)cc1[N+](=O)[O-] (stereo unspecified) | inactive: -29.9%
Cc1ccc(N=Cc2c(O)n(-c3cc(Cl)ccc3N3CCOCC3)c(=O)c3ccccc23)cc1C | inconclusive: -34%
CN1CCN(C(=O)c2ccc(NS(=O)(=O)c3cccc([N+](=O)[O-])c3)cc2)CC1 | inactive: 20.1%
COc1ccc(C(C#N)=C2C=CC(=NO)C=C2)cc1 | active: -101%
O=C(c1ccccc1)N1CCN(Cc2cccc(Oc3ccccc3)c2)CC1 | inactive: -15.1%
O=C(O)CCC(=O)Nc1ccccc1C(=O)NCCc1ccccc1 | inactive: 14.6%
CCC(=O)Nc1cc(C(=O)OC(C(=O)c2ccc(C)c(C)c2)c2ccccc2)ccc1C (stereo unspecified) | active: -58.5%
CCCNC(=O)[C@H](Cc1c[nH]c2ccccc12)NC(=O)c1ccccc1Cl | inactive: 4.08%
CCSCCOC(=O)C1=C(C)NC(=O)NC1c1cc(OC)ccc1OC (stereo unspecified) | inconclusive: -36.8%
COC(=O)C1=C(C)NC(C)=C(C(=O)O[C@@H]2CCCN(Cc3ccccc3)C2)[C@@H]1c1cccc([N+](=O)[O-])c1 | inconclusive: -42.6%

SMILES | activity change
CCNC(=S)Nc1ccc(Cl)c(C(F)(F)F)c1 | inactive: 4.39%
CC(Nc1nc(-c2ccc3c(c2)NC(=O)CO3)cs1)c1ccccc1 (stereo unspecified) | inconclusive: -40.4%
O=C(CCCC1=NS(=O)(=O)c2ccccc2N1)Nc1ccccc1 | inactive: -3.06%
CCN(CC)S(=O)(=O)c1cc(NC(=O)Cn2ncc(Cl)c(Cl)c2=O)ccc1C | active: -58.9%
Cn1c(-c2ccc(-c3ccccc3)cc2)c[nH]c1=S | inactive: -26.4%
C=C(C)C1(O)OC(=O)C=C1OC (stereo unspecified) | active: -75.7%
CC(CCc1ccccc1)NC(=O)COC(=O)c1cc(NS(=O)(=O)c2ccc(Cl)c([N+](=O)[O-])c2)ccc1O (stereo unspecified) | active: -97.7%
COc1ccccc1/C=N/NC(=O)c1ccccc1Cl | active: -67.2%
Cc1nonc1OCC(C)(COc1nonc1C)NC(=O)c1ccccc1 | inactive: 6.12%
Cc1ccc(/C=N/Nc2nc3ccccc3[nH]2)s1 | active: -108%
COC(=O)COc1ccc(S(=O)(=O)NC2CCCCCC2)cc1 | inconclusive: -30.1%
COc1ccc(CNCC(O)COc2cccc3c2OC(C)(C)C3)cc1 (stereo unspecified) | inconclusive: -39%
O=C(NCCN1CCC(n2c(=O)[nH]c3ccccc32)CC1)c1ccc(F)c(C(F)(F)F)c1 | inconclusive: -42%
COc1ccccc1/C=N/NC(=O)CSc1cc(C)nc2ccccc12 | active: -65.6%
Cn1cc(-c2ccc(C(=O)NCc3cccc(Cl)c3)c3occc23)cn1 | inconclusive: -41.8%
C=C(C)Cc1c(C)c(C#N)c2[nH]c3ccccc3n2c1=O | inactive: 21.1%
O=C(Nc1ccc(CN2CCS(=O)(=O)CC2)cc1)c1ccc(Cl)cc1 | inactive: -21%
COc1cc(/C=N/NC(=O)CN(Cc2ccco2)S(=O)(=O)c2ccccc2)ccc1O | inactive: -0.308%
